The other results are listed elsewhere or left out.
Target: T1, OsWOX13 (Oryza sativa, UniProt Q5QMM3 1-267)
T1 sequence: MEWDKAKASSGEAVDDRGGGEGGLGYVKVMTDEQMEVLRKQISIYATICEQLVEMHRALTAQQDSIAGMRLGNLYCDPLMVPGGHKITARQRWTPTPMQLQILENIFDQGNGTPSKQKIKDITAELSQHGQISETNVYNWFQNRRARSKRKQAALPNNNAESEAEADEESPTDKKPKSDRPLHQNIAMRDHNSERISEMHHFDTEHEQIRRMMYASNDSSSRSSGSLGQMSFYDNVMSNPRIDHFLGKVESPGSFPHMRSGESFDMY
Assay: protein-binding microarray (RPBM); PBS, 2% BSA, 51.3 ng/ul salmon testes DNA, 50 uM zinc acetate, 200 nM TF, 25 C, 1 h; high values mean tight binding
Settings: protein: recombinant; tags: N-terminal polyhistidine and DsRed monomer fusion (pET32a); label: CyDye5-dUTP incorporated in the synthesized complementary strand; 3' TTTTT single-stranded linker to array surface; dsDNA, one strand shown
Procedure, shortened: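 An Axon 4000B scanner gave the binding signal as per-feature fluorescence intensity in arbitrary units. This followed washing of a custom Agilent array that had been incubated for 1 h at 25 °C with 200 nM protein in PBS, 2% BSA, salmon testes DNA and 50 µM zinc acetate. The proteins were transcription factors fused at the N-terminus to polyhistidine and DsRed, expressed in E. coli BL21-CodonPlus and purified on Ni–NTA.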

Sequence | binding signal
TGATGATTAGCATCCCAACCAATCAGAAATTCTGAACATGCGGAGTCACCTAGTGCAG | 47200 fluorescence intensity (a.u.)
GTAGATTGACTGCGGACAACAAAGCTGAGTCAGCGTGGGACGGAGTCACCTAGTGCAG | 50000 fluorescence intensity (a.u.)
GGAGCGGGACTGATTGCGGATGCATTTGCAGAAGATTGGTCGGAGTCACCTAGTGCAG | 8060 fluorescence intensity (a.u.)
ATGTGACTGAAAAGTTGTGTGTGTATGACAGGTTGATGTGCGGAGTCACCTAGTGCAG | 12400 fluorescence intensity (a.u.)
TGGGAATTGGGAGCAGTGACGTGCTCCATGCATGCATATGCGGAGTCACCTAGTGCAG | 6400 fluorescence intensity (a.u.)
TCATTTGATTTATTGTTAAATATACTTTTATGTATACATACGGAGTCACCTAGTGCAG | 27500 fluorescence intensity (a.u.)
GATGACGAACTAGATTTGGTGAACAATTAAGGGTGTCTAACGGAGTCACCTAGTGCAG | 10100 fluorescence intensity (a.u.)
TTATAACACAAATAATATAATAGATATATAGACTGTTGTCCGGAGTCACCTAGTGCAG | 3650 fluorescence intensity (a.u.)
ATGAAATAATTGCAAGGCGTCTTGCAGACAGTGGGCAGTCCGGAGTCACCTAGTGCAG | 7400 fluorescence intensity (a.u.)
ATAATTCAAATTCAAATTTGAATCGGGGATGTAAACTTTTCGGAGTCACCTAGTGCAG | 4020 fluorescence intensity (a.u.)
TTTACTTCAATTCTATTCAATTGAAATTAGCAACTTGCCGCGGAGTCACCTAGTGCAG | 3300 fluorescence intensity (a.u.)
ATTAACTATAAATAATTTAAATAAATAATTTGAAGCTAGCCGGAGTCACCTAGTGCAG | 28000 fluorescence intensity (a.u.)
ATAATAGGTTAATGATAGTATATTGGTGTTTTAAAAGCTACGGAGTCACCTAGTGCAG | 5080 fluorescence intensity (a.u.)
ATACTAATCATAAAATAAATTTATATAAGATGAACGGTCACGGAGTCACCTAGTGCAG | 16200 fluorescence intensity (a.u.)
GCATGATTGCATTAATTTGGTCCATTAGTCGCAACTGCCACGGAGTCACCTAGTGCAG | 50100 fluorescence intensity (a.u.)
ACTTACTATTTATCACTTTGACAGTGACTCTTTTGTATATCGGAGTCACCTAGTGCAG | 3260 fluorescence intensity (a.u.)
TCCATTAACATTTGCCATTATCGTACTGACTTTCGTACGACGGAGTCACCTAGTGCAG | 3710 fluorescence intensity (a.u.)
TTGATTGGGTGTTTAATCGGGTATAGTCAGGTGTCTGCCTCGGAGTCACCTAGTGCAG | 51400 fluorescence intensity (a.u.)
CTTATAAATTGACTCAAATACGGATATATATTTTCAAAAGCGGAGTCACCTAGTGCAG | 15900 fluorescence intensity (a.u.)
GTTGAGATTAATTGTTCTATACTACTTTCTCTATCTAAAACGGAGTCACCTAGTGCAG | 7990 fluorescence intensity (a.u.)
GACGAAAATGATTGGTAAAAGTATGGGCAACCTTCTCCCTCGGAGTCACCTAGTGCAG | 35400 fluorescence intensity (a.u.)
TTTAATTTGTAAACGTGCAATACCACATGTTGTATTGGTCCGGAGTCACCTAGTGCAG | 40900 fluorescence intensity (a.u.)
GATAGAGACTAATTTTAATCAACCATCCATGACGTGTTAACGGAGTCACCTAGTGCAG | 8770 fluorescence intensity (a.u.)
CTTTAATTTCAATCTATGTACTTAATAATATAGGAATACTCGGAGTCACCTAGTGCAG | 32000 fluorescence intensity (a.u.)
AGTTCAGATTGAAAATTTTGAAAACTTTCAATTTGAGATTCGGAGTCACCTAGTGCAG | 28600 fluorescence intensity (a.u.)
TTAAAATTTTCAATTATTCTTTTAAAACTTTTAACTAAATCGGAGTCACCTAGTGCAG | 4750 fluorescence intensity (a.u.)
GGGTCTATTTCAAATCATCATGTAACATCGGAATTCAAGTCGGAGTCACCTAGTGCAG | 5260 fluorescence intensity (a.u.)

Sequence | binding signal
TATAAAATCATGAGCTGTAATTAGGGTTCCGATCATCTCACGGAGTCACCTAGTGCAG | 12300 fluorescence intensity (a.u.)
ATCAAATCATATCCAATCCTTTGAAATTCCTATGGAATGGCGGAGTCACCTAGTGCAG | 4340 fluorescence intensity (a.u.)
CAAAATCAATTTCTATAACTTGTCGAGGAAATCGATCGTTCGGAGTCACCTAGTGCAG | 5880 fluorescence intensity (a.u.)
AAACAGATAGACACAAACATTTCCAGCTTTTCAGTTCCTGCGGAGTCACCTAGTGCAG | 8890 fluorescence intensity (a.u.)
ATTGATTGTAGCCAAAATAAATTTTACTAAATTTTGCCAACGGAGTCACCTAGTGCAG | 32500 fluorescence intensity (a.u.)
AAGAAGATGATAATTGTGGTGGAGAGAAATAGGGCAATCTCGGAGTCACCTAGTGCAG | 4070 fluorescence intensity (a.u.)
CATACTATTTAAATTTAAATTATCATAAATCATATTAATTCGGAGTCACCTAGTGCAG | 21800 fluorescence intensity (a.u.)
ATAAGATTGCTGACGAGAGTTTAAACGTTGTCGAACTAAGCGGAGTCACCTAGTGCAG | 7210 fluorescence intensity (a.u.)
GCCACCATTAATTGCGAGCTGCTTCTTCTTCCCGTTCTTGCGGAGTCACCTAGTGCAG | 12000 fluorescence intensity (a.u.)
TATAGATAGACATATAGATATGGATATAGACATAGTAATACGGAGTCACCTAGTGCAG | 3770 fluorescence intensity (a.u.)
AGATTACATGATTGGAAATCTTTCACATATTTGTTTCAGGCGGAGTCACCTAGTGCAG | 51800 fluorescence intensity (a.u.)
TCTTAAGATTGAAATGTTACTACTAGAAAATGGGCTCTCTCGGAGTCACCTAGTGCAG | 9660 fluorescence intensity (a.u.)
GCCAAAATTTAACTAAAATCCCACCCTATACACTGTACGGCGGAGTCACCTAGTGCAG | 3170 fluorescence intensity (a.u.)
GCCTTGATGAGTCACTGCATGACGGGGACCTCGCCGATGGCGGAGTCACCTAGTGCAG | 6420 fluorescence intensity (a.u.)
ATAATTAAATATATTTAGATGCAGGAAATTTACAATCATCCGGAGTCACCTAGTGCAG | 24500 fluorescence intensity (a.u.)
TGTAAACTGTGACAAGTGTCTCTTTGAAAGACTAATACATCGGAGTCACCTAGTGCAG | 3270 fluorescence intensity (a.u.)
TTTGGCTAGATTGAGGTCGTTGGTGACTCTAGGATCACCGCGGAGTCACCTAGTGCAG | 6590 fluorescence intensity (a.u.)
TTCTCTAATTGGTAATTCATGATTAATCACTCCTACTTTACGGAGTCACCTAGTGCAG | 48000 fluorescence intensity (a.u.)
CCATTGTTGATTTATTAATTAGCCATTTAAGTTCCCAAATCGGAGTCACCTAGTGCAG | 30100 fluorescence intensity (a.u.)
AGTTGATTATGAGTCTTGTGACTTGTGGGGTTGTTTTGGTCGGAGTCACCTAGTGCAG | 29300 fluorescence intensity (a.u.)
ATGTGATGATTGTTAGTGGATGATGATGTGGCATCTTGTTCGGAGTCACCTAGTGCAG | 43600 fluorescence intensity (a.u.)
GCAATTAATGATTTGCCACACCCTATCAATGACATGTGGGCGGAGTCACCTAGTGCAG | 29100 fluorescence intensity (a.u.)
CCTAATTGGTGATCAATTTAACTAGTACTCGTAATAAATCCGGAGTCACCTAGTGCAG | 27300 fluorescence intensity (a.u.)
TTGTGATTGGTTAAGATAAATAGATTGTTGTAGATATTCGCGGAGTCACCTAGTGCAG | 36900 fluorescence intensity (a.u.)
GCGTTGACTGACATGTGGGCCCGAGGGCGGGTCGCGCGTGCGGAGTCACCTAGTGCAG | 26700 fluorescence intensity (a.u.)
TATTTATTATTTCAATTATAGACGATGTTCTGGTCGACAACGGAGTCACCTAGTGCAG | 9490 fluorescence intensity (a.u.)
GCAAATTGATAATTGAAACAGAATTCAGTCGTTTGTACAGCGGAGTCACCTAGTGCAG | 62700 fluorescence intensity (a.u.)
